One substance from US10751318B2, “Pharmaceutical co-crystal and use thereof” (SYN-NAT PRODUCTS ENTERPRISE LLC, priority 2015, dated 2020) can be followed below.

Where two headings read alike, the source gives them in different places.

The subject of one data set is Hantaan virus (HTNV). The data set is classed as cell-based. As to conditions: 7 d, VeroE6 cells.

Turning to “carboplatin cis-cyclobutane-1,2-dicarboxylic acid co-crystal [CBCBP]”, the “inhibition rate of HTNV” value in the data set on Hantaan virus (HTNV) (2.3 μg/mL) amounted to 6.5%; in the data set with Hantaan virus (HTNV) (4.6 μg/mL) it was 20.0%; in the data set with Hantaan virus (HTNV) (9.3 μg/mL), 25.5%; with Hantaan virus (HTNV) (18.7 μg/mL), 40.0%; in the data set on Hantaan virus (HTNV) (37.5 μg/mL) it was 50.0%. In addition, the “IC50 inhibition of HTNV” value in the data set with Hantaan virus (HTNV) (regression equation) amounted to 33.684 µg/mL. For the same substance, in the data set with VeroE6 cells, the “TC50 on VeroE6 cells” value amounted to 58.367 µg/mL.
